According to PubChem BioAssay AID1508642 (National Center for Advancing Translational Sciences (NCATS), 2021):
Hit rate of the full screen: of about 43,000 compounds, about 200 (0.47%) were called active. Inconclusive results (about 12%) are left out. Calls follow the shape of the dose curve; as a rule, active = well fitted cell-killing curve with a large enough effect; inconclusive = small, poorly fitted or top-dose-only effect, or effect the other way; inactive = flat fitted curve, though single readings scatter. This is one part of the list.

test: Cell viability qHTS assay in S16 Pmp22-F2sN cells; conditions: S16 Pmp22-F2sN Schwann cells viability, CellTiter-Glo, 24 h; series mostly up to 57.5 µM; activity change, negative = cytotoxicity: at the top concentration; also: nearly all actives have a fitted effect of over 65% in size
Method in brief: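 S16 Pmp22-F2sN Schwann cells (500-1,000/well) in phenol-red-free DMEM with 10% FBS received 23 nL compound by pin tool for 24 h at 37 °C. Viability was then read as CellTiter-Glo luminescence after 15 min at room temperature.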
% is scaled to controls: 0 for no effect and ±100 for the full control effect.

Row | Structure (SMILES) | activity change, negative = cytotoxicity
1 | CCOC(=O)C1CCN(S(=O)(=O)c2cc(-c3cc(C)no3)ccc2C)CC1 | inactive: 10.6%
2 | Cc1cccc(-c2nc3scc(CCNC(=O)c4ccccc4Cl)n3n2)c1 | inactive: -14.4%
3 | Cc1cccc(NC(=O)CSc2nnc(CNC(=O)c3c(F)cccc3Cl)o2)c1C | inactive: 0.131%
4 | CC(C)c1nn2c(=O)cc(COC(=O)c3ccc(NC(=O)CCc4ccccc4)cc3)nc2s1 | inactive: -1.41%
5 | CCC1CN(C(=O)N2CCC(C(=O)NCc3cccs3)CC2)c2cc(C)ccc2O1 (configuration not stated) | inactive: -16.8%
6 | Cc1ccc2nc(N3CCN(c4cccc(C)c4C)CC3)c3nnnn3c2c1 | inactive: 5.83%
7 | COc1ccc(NC(=O)Cc2csc(C)n2)cc1 | inactive: 1.12%
8 | CC(C)(C)C(=O)Nc1c(C(=O)N2CCN(c3ccc(F)cc3)CC2)oc2ccccc12 | inactive: -4.87%
9 | CCc1cccc(NC(=O)CSc2ncc3c(n2)-c2ccccc2N(Cc2ccccc2C)S3(=O)=O)c1 | inactive: 1.52%
10 | CCOc1ccc(-c2cc(C(=O)NCc3ccccc3)c3c(-c4ccc(CC)cc4)[nH]nc3n2)cc1 | inactive: -0.882%
11 | Cc1ccccc1Nc1c2c(nc3nncn13)CCC2 | inactive: 8.06%
12 | Cc1c(C)n(C)c2ccc(C(=O)NCCCN3CCCCC3)cc12 | inactive: -3.53%
13 | Cc1ccc(-c2c(C(=O)NCCc3ccc(Cl)cc3)oc(=O)c3ccccc23)cc1 | inactive: -0.879%
14 | CCc1ccc(-c2ccc(C(=O)Oc3ccc(Br)cc3)cc2)nc1 | inactive: 13.7%
15 | COc1ccc(CNc2ncnc3c2c(-c2ccccc2)cn3-c2ccccc2)cc1 | inactive: 4.02%
16 | CCN(CC)S(=O)(=O)c1ccc(C(=O)N=c2sc3cccc(OC)c3n2C)cc1 | inactive: 2.45%
17 | Cc1ccc(S(=O)(=O)c2nc(-c3ccc(Cl)cc3)oc2N2CCCCCC2)cc1 | inactive: 0.131%
18 | Cc1ccc(-c2nc(SCc3ccc(Br)cc3)n3[nH]c(=O)cc3n2)cc1 | inactive: -2.45%
19 | COCCc1nn2c(=O)cc(COC(=O)c3ccc(C(C)(C)C)cc3)nc2s1 | inactive: -2.53%
20 | Cc1ccc(Cn2ccc(NC(=O)c3cc(-c4ccc(Cl)c(Cl)c4)on3)n2)cc1 | inactive: -1.22%
21 | Cc1ccc(-n2ncc(C(=O)N3CCN(Cc4ccccc4)CC3)c2C2CCN(C(=O)OC(C)(C)C)CC2)c(C)c1 | inactive: 3.5%
22 | CCOC(=O)c1ccccc1NC(=O)Cn1c(=O)n(Cc2ccccc2)c(=O)c2c(C)c(C)sc21 | inactive: -6.57%
23 | CCN(c1ccc(Cl)cc1)S(=O)(=O)c1nnc(NC(=O)C(C)C)s1 | inactive: 17.2%
24 | CCC(=O)Oc1ccc(-c2nc3ccccc3c(=O)o2)cc1 | inactive: -0.108%
25 | COc1ccc(-c2nnc(SCC(=O)Nc3ccc(F)cc3)s2)cc1 | inactive: 4.57%
26 | CN(C)c1ccc(C(CNS(=O)(=O)c2ccc(Br)cc2)N2CCOCC2)cc1 (configuration not stated) | inactive: 15.1%
27 | O=c1c2sc3ccccc3c2n(Cc2ccccc2F)c(=O)n1CCc1ccccc1 | inactive: 1.08%
